# Source: paper PMC9911399, “Two distinct binding modes provide the RNA-binding protein RbFox with extraordinary sequence specificity”
# Substitutions are numbered along the chain they refer to; changes in the protein carry UniProt numbers. This is one part of the list.
# B1: CAUUUUU (DNA:RNA)
# RNA: GGGAGACCGGAAUUCAGAUUGUCCCAUUUUUUUAAAUCCCGUCGUAGCCACCA
# DNA 1: CAATCTGAATTCCGGTCTCCC
# DNA 2: TGGTGGCTACGACGGGATT
# B2: GUUCUAA (DNA:RNA)
# RNA: B1 RNA with C25G, A26U, U28C, U30A, U31A
# DNA 1: CAATCTGAATTCCGGTCTCCC
# DNA 2: TGGTGGCTACGACGGGATT
# B3: UAUCUGC (DNA:RNA)
# RNA: B1 RNA with C25U, U28C, U30G, U31C
# DNA 1: CAATCTGAATTCCGGTCTCCC
# DNA 2: TGGTGGCTACGACGGGATT
# B4: CUAGCAU (DNA:RNA)
# RNA: B1 RNA with A26U, U27A, U28G, U29C, U30A
# DNA 1: CAATCTGAATTCCGGTCTCCC
# DNA 2: TGGTGGCTACGACGGGATT
# B5: ACGGCAU (DNA:RNA)
# RNA: B1 RNA with C25A, A26C, U27G, U28G, U29C, U30A
# DNA 1: CAATCTGAATTCCGGTCTCCC
# DNA 2: TGGTGGCTACGACGGGATT
# B6: CUAAGCG (DNA:RNA)
# RNA: B1 RNA with A26U, U27A, U28A, U29G, U30C, U31G
# DNA 1: CAATCTGAATTCCGGTCTCCC
# DNA 2: TGGTGGCTACGACGGGATT
# B7: GCCUAUU (DNA:RNA)
# RNA: B1 RNA with C25G, A26C, U27C, U29A
# DNA 1: CAATCTGAATTCCGGTCTCCC
# DNA 2: TGGTGGCTACGACGGGATT
# B8: CUUCCGA (DNA:RNA)
# RNA: B1 RNA with A26U, U28C, U29C, U30G, U31A
# DNA 1: CAATCTGAATTCCGGTCTCCC
# DNA 2: TGGTGGCTACGACGGGATT
# B9: AGGUCAG (DNA:RNA)
# RNA: B1 RNA with C25A, A26G, U27G, U29C, U30A, U31G
# DNA 1: CAATCTGAATTCCGGTCTCCC
# DNA 2: TGGTGGCTACGACGGGATT
# B10: CGUUGGA (DNA:RNA)
# RNA: B1 RNA with A26G, U29G, U30G, U31A
# DNA 1: CAATCTGAATTCCGGTCTCCC
# DNA 2: TGGTGGCTACGACGGGATT
# B11: AAAAACU (DNA:RNA)
# RNA: B1 RNA with C25A, U27A, U28A, U29A, U30C
# DNA 1: CAATCTGAATTCCGGTCTCCC
# DNA 2: TGGTGGCTACGACGGGATT
# B12: AACUCUA (DNA:RNA)
# RNA: B1 RNA with C25A, U27C, U29C, U31A
# DNA 1: CAATCTGAATTCCGGTCTCCC
# DNA 2: TGGTGGCTACGACGGGATT
# B13: UGGAGUU (DNA:RNA)
# RNA: B1 RNA with C25U, A26G, U27G, U28A, U29G
# DNA 1: CAATCTGAATTCCGGTCTCCC
# DNA 2: TGGTGGCTACGACGGGATT
# B14: GGAUUUG (DNA:RNA)
# RNA: B1 RNA with C25G, A26G, U27A, U31G
# DNA 1: CAATCTGAATTCCGGTCTCCC
# DNA 2: TGGTGGCTACGACGGGATT
# B15: AUAUAAA (DNA:RNA)
# RNA: B1 RNA with C25A, A26U, U27A, U29A, U30A, U31A
# DNA 1: CAATCTGAATTCCGGTCTCCC
# DNA 2: TGGTGGCTACGACGGGATT
# B16: CUUGCGA (DNA:RNA)
# RNA: B1 RNA with A26U, U28G, U29C, U30G, U31A
# DNA 1: CAATCTGAATTCCGGTCTCCC
# DNA 2: TGGTGGCTACGACGGGATT
# B17: CAAUACA (DNA:RNA)
# RNA: B1 RNA with U27A, U29A, U30C, U31A
# DNA 1: CAATCTGAATTCCGGTCTCCC
# DNA 2: TGGTGGCTACGACGGGATT
# B18: UUUGCCG (DNA:RNA)
# RNA: B1 RNA with C25U, A26U, U28G, U29C, U30C, U31G
# DNA 1: CAATCTGAATTCCGGTCTCCC
# DNA 2: TGGTGGCTACGACGGGATT
# B19: UUUAUCG (DNA:RNA)
# RNA: B1 RNA with C25U, A26U, U28A, U30C, U31G
# DNA 1: CAATCTGAATTCCGGTCTCCC
# DNA 2: TGGTGGCTACGACGGGATT
# B20: AAGGAUC (DNA:RNA)
# RNA: B1 RNA with C25A, U27G, U28G, U29A, U31C
# DNA 1: CAATCTGAATTCCGGTCTCCC
# DNA 2: TGGTGGCTACGACGGGATT
# B21: CGGCACU (DNA:RNA)
# RNA: B1 RNA with A26G, U27G, U28C, U29A, U30C
# DNA 1: CAATCTGAATTCCGGTCTCCC
# DNA 2: TGGTGGCTACGACGGGATT
# B22: CAGGUCC (DNA:RNA)
# RNA: B1 RNA with U27G, U28G, U30C, U31C
# DNA 1: CAATCTGAATTCCGGTCTCCC
# DNA 2: TGGTGGCTACGACGGGATT
# B23: UUCUACG (DNA:RNA)
# RNA: B1 RNA with C25U, A26U, U27C, U29A, U30C, U31G
# DNA 1: CAATCTGAATTCCGGTCTCCC
# DNA 2: TGGTGGCTACGACGGGATT
# B24: AGAGUUU (DNA:RNA)
# RNA: B1 RNA with C25A, A26G, U27A, U28G
# DNA 1: CAATCTGAATTCCGGTCTCCC
# DNA 2: TGGTGGCTACGACGGGATT
# B25: GGGGUUC (DNA:RNA)
# RNA: B1 RNA with C25G, A26G, U27G, U28G, U31C
# DNA 1: CAATCTGAATTCCGGTCTCCC
# DNA 2: TGGTGGCTACGACGGGATT
# B26: UGAUCUU (DNA:RNA)
# RNA: B1 RNA with C25U, A26G, U27A, U29C
# DNA 1: CAATCTGAATTCCGGTCTCCC
# DNA 2: TGGTGGCTACGACGGGATT
# B27: GACAGUG (DNA:RNA)
# RNA: B1 RNA with C25G, U27C, U28A, U29G, U31G
# DNA 1: CAATCTGAATTCCGGTCTCCC
# DNA 2: TGGTGGCTACGACGGGATT
# B28: CCCCGAA (DNA:RNA)
# RNA: B1 RNA with A26C, U27C, U28C, U29G, U30A, U31A
# DNA 1: CAATCTGAATTCCGGTCTCCC
# DNA 2: TGGTGGCTACGACGGGATT
# B29: AUCUUCU (DNA:RNA)
# RNA: B1 RNA with C25A, A26U, U27C, U30C
# DNA 1: CAATCTGAATTCCGGTCTCCC
# DNA 2: TGGTGGCTACGACGGGATT
# B30: UUCAGAA (DNA:RNA)
# RNA: GGGAGACCGGAAUUCAGAUUGUCCUUCAGAAUUAAAUCCCGUCGUAGCCACCA
# DNA 1: CAATCTGAATTCCGGTCTCCC
# DNA 2: TGGTGGCTACGACGGGATT
# B31: CGUCAUA (DNA:RNA)
# RNA: B1 RNA with A26G, U28C, U29A, U31A
# DNA 1: CAATCTGAATTCCGGTCTCCC
# DNA 2: TGGTGGCTACGACGGGATT
# Molecular target: T1, RBFOX1 RRM (Homo sapiens, UniProt Q9NWB1 109-208)
# T1 sequence: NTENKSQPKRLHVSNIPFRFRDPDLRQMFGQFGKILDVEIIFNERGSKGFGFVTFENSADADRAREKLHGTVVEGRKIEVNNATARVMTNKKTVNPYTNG
# Assay: EMSA; HiTS-Eq, 1 nM pool, 10 min; buffer printed only for the single-RNA assays: 10 mM Tris pH 7.5, 150 mM NaCl, 3.4 mM EDTA, 0.001% NP-40, 30 C
# Conditions: tags: His6 N-terminal (pET28a); label: 5' 32P
# Summary of the method: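 Relative association constants, normalised to the cognate motif, were derived by comparing read counts of each RNA species with those of the control reaction. The RNA sequenced was the free fraction, separated by 8% native PAGE after a 10 min equilibration in 50 µL of 1 nM 5′-radiolabelled RNA (7 randomized nucleotides) with increasing concentrations of purified wild-type or mutant RbFox RRM.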
row,Binder,binding signal
1,B1,0.00699 KA relative to UGCAUGU
2,B2,0.005 KA relative to UGCAUGU
3,B3,0.0226 KA relative to UGCAUGU
4,B4,0.00771 KA relative to UGCAUGU
5,B5,0.0117 KA relative to UGCAUGU
6,B6,0.00989 KA relative to UGCAUGU
7,B7,0.0114 KA relative to UGCAUGU
8,B8,0.00692 KA relative to UGCAUGU
9,B9,0.0133 KA relative to UGCAUGU
10,B10,0.00714 KA relative to UGCAUGU
11,B11,0.000453 KA relative to UGCAUGU
12,B12,0.00136 KA relative to UGCAUGU
13,B13,0.0241 KA relative to UGCAUGU
14,B14,0.034 KA relative to UGCAUGU
15,B15,0.000659 KA relative to UGCAUGU
16,B16,0.015 KA relative to UGCAUGU

row,Binder,binding signal
1,B17,0.000667 KA relative to UGCAUGU
2,B18,0.016 KA relative to UGCAUGU
3,B19,0.0113 KA relative to UGCAUGU
4,B20,0.00964 KA relative to UGCAUGU
5,B21,0.0111 KA relative to UGCAUGU
6,B22,0.0102 KA relative to UGCAUGU
7,B23,0.0102 KA relative to UGCAUGU
8,B24,0.00931 KA relative to UGCAUGU
9,B25,0.0437 KA relative to UGCAUGU
10,B26,0.0165 KA relative to UGCAUGU
11,B27,0.0177 KA relative to UGCAUGU
12,B28,0.00141 KA relative to UGCAUGU
13,B29,0.00317 KA relative to UGCAUGU
14,B30,0.00968 KA relative to UGCAUGU
15,B31,0.00342 KA relative to UGCAUGU
